The other results are listed elsewhere or left out. These are noisy estimates, calculated here from bound and input reads.

The target in this experiment is T1, Pho4 (S. cerevisiae) (UniProt P07270).
T1 sequence: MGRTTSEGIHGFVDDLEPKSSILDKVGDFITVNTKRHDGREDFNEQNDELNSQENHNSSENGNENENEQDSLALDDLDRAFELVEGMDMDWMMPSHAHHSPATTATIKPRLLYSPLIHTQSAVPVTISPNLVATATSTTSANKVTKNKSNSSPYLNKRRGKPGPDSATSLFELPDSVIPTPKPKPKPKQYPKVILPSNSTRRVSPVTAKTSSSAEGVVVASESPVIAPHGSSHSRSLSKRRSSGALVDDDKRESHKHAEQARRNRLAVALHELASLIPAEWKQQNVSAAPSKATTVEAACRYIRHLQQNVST
In words: relative binding free energy (BET-seq); higher = weaker binding. The conditions noted are these: reference: library average.
Consider AGTGACACGTGAAGGT, for which the “relative binding free energy” value was determined as 0.04 kcal/mol.

As to TGTGACACGTGGACGG, the “relative binding free energy” value was -0.02 kcal/mol.

Consider GTGTGCACGTGTGAAG, for which the “relative binding free energy” value stood at 0.13 kcal/mol.

In the case of AGAGGCACGTGATGGC, the “relative binding free energy” value was 0.08 kcal/mol.

For the sequence TATGTCACGTGGGTAT, the “relative binding free energy” value came to 0.01 kcal/mol.

Take GTGGGCACGTGCCAGG: the “relative binding free energy” value was -0.1 kcal/mol.

On to GAGTACACGTGTAGTA, for which the “relative binding free energy” value came out at 0.14 kcal/mol.

As for AAGGTCACGTGAAATT, the “relative binding free energy” value is 0.33 kcal/mol.

Turning to GCCTACACGTGGTGGT, the “relative binding free energy” value amounted to 0.09 kcal/mol.

As for GCCGTCACGTGTGGGT, the “relative binding free energy” value stood at 0.08 kcal/mol.

For the sequence ATGTGCACGTGCGTTA, the “relative binding free energy” value is -0.11 kcal/mol.

Consider CAAGTCACGTGTCGGT, for which the “relative binding free energy” value is 0.11 kcal/mol.

For TTTTGCACGTGTGATC, the “relative binding free energy” value amounted to 0.1 kcal/mol.

With GGGGCCACGTGCGAGT, the “relative binding free energy” value is -0.16 kcal/mol.

Take AATGTCACGTGTCTAG: the “relative binding free energy” value came out at 0.12 kcal/mol.

Consider ATATACACGTGAGGTG, for which the “relative binding free energy” value worked out at 0.15 kcal/mol.

GGAAGCACGTGAGGGT: the “relative binding free energy” value came to 0.12 kcal/mol.

TCCTTCACGTGGTGGT: the “relative binding free energy” value stood at 0.17 kcal/mol.

In the case of CTTGACACGTGATGGC, the “relative binding free energy” value amounted to 0.31 kcal/mol.

On to TAGGTCACGTGTATAT, for which the “relative binding free energy” value is 0.16 kcal/mol.

TTGTACACGTGAATGG: the “relative binding free energy” value turned out to be 0.29 kcal/mol.

For GGTATCACGTGTTCGT, the “relative binding free energy” value was found to be 0.23 kcal/mol.

For the sequence GTGAACACGTGATAGG, the “relative binding free energy” value came to 0.14 kcal/mol.

For TAATGCACGTGGTGGT, the “relative binding free energy” value is -0.12 kcal/mol.

In the case of TAGAGCACGTGGAGGT, the “relative binding free energy” value was -0.12 kcal/mol.

For TCACGCACGTGTGGGT, the “relative binding free energy” value is -0.23 kcal/mol.

For the sequence TGTATCACGTGGGATT, the “relative binding free energy” value came to 0.09 kcal/mol.

Take TGGTGCACGTGGTCAT: the “relative binding free energy” value is -0.1 kcal/mol.

For the sequence TTTTTCACGTGGGGGA, the “relative binding free energy” value stood at 0.28 kcal/mol.

As to TGGTTCACGTGACCGG, the “relative binding free energy” value came to 0.38 kcal/mol.

As to GGAAGCACGTGGAGGT, the “relative binding free energy” value is -0.11 kcal/mol.

For the sequence CATGGCACGTGCTTGA, the “relative binding free energy” value turned out to be 0.13 kcal/mol.

Regarding CAGGGCACGTGTAAGG, the “relative binding free energy” value was -0.14 kcal/mol.

As to ATTCTCACGTGGTGTC, the “relative binding free energy” value was 0.32 kcal/mol.

GATATCACGTGGAGAG: the “relative binding free energy” value is 0.27 kcal/mol.

On to AGGCTCACGTGGATAT, for which the “relative binding free energy” value was determined as 0.37 kcal/mol.

Turning to GGATACACGTGTTGGA, the “relative binding free energy” value was -0.06 kcal/mol.

As for GGGCTCACGTGAAGTA, the “relative binding free energy” value was 0.37 kcal/mol.

Consider CTTAGCACGTGGGAGG, for which the “relative binding free energy” value is -0.1 kcal/mol.

As for GTAAGCACGTGAGTTT, the “relative binding free energy” value came to 0.32 kcal/mol.

Take TTAGGCACGTGCAAGG: the “relative binding free energy” value is -0.15 kcal/mol.

As for ATCGTCACGTGGGGCA, the “relative binding free energy” value is -0.01 kcal/mol.

Take ATATACACGTGTGTGA: the “relative binding free energy” value came to 0.02 kcal/mol.

As to TAGGACACGTGGTATA, the “relative binding free energy” value was -0.04 kcal/mol.

Take ATGTTCACGTGACGTT: the “relative binding free energy” value came to 0.29 kcal/mol.

As for ACAAGCACGTGTGGGG, the “relative binding free energy” value was -0.12 kcal/mol.

GTTTTCACGTGAGTTC: the “relative binding free energy” value was 0.39 kcal/mol.

With TGATTCACGTGGGGTC, the “relative binding free energy” value was found to be 0.15 kcal/mol.

Consider ATAGGCACGTGGGTGC, for which the “relative binding free energy” value was -0.23 kcal/mol.

TCTTTCACGTGTTGGC: the “relative binding free energy” value came out at 0.37 kcal/mol.

On to TTCTACACGTGGTGTT, for which the “relative binding free energy” value came out at 0.02 kcal/mol.

On to TTATGCACGTGCTGTT, for which the “relative binding free energy” value is -0.19 kcal/mol.

For the sequence TTGAGCACGTGAGCCG, the “relative binding free energy” value came out at 0.21 kcal/mol.

Turning to AGTAACACGTGGTTAG, the “relative binding free energy” value is -0.05 kcal/mol.

Turning to AATAGCACGTGGGATG, the “relative binding free energy” value was -0.14 kcal/mol.

In the case of TCGTACACGTGTGTCG, the “relative binding free energy” value is -0.05 kcal/mol.

Take TTGGACACGTGGACTG: the “relative binding free energy” value worked out at 0.13 kcal/mol.

For GAAAGCACGTGTGTGA, the “relative binding free energy” value was -0.05 kcal/mol.

Turning to CATGGCACGTGATATT, the “relative binding free energy” value worked out at 0.06 kcal/mol.

As to AGTTACACGTGGACGG, the “relative binding free energy” value was 0.14 kcal/mol.

CAGATCACGTGGGGTT: the “relative binding free energy” value amounted to 0.02 kcal/mol.

On to CAAGGCACGTGGCGGT, for which the “relative binding free energy” value was -0.25 kcal/mol.

Consider TTTTTCACGTGTCAAT, for which the “relative binding free energy” value was 0.34 kcal/mol.

As for AGTACCACGTGAGGGG, the “relative binding free energy” value is -0.08 kcal/mol.

CCTATCACGTGTGGGT: the “relative binding free energy” value is 0.22 kcal/mol.

Turning to TGTGCCACGTGTATGG, the “relative binding free energy” value is -0.09 kcal/mol.

Consider TTTATCACGTGGTGCT, for which the “relative binding free energy” value was determined as 0.05 kcal/mol.

In the case of TTAGGCACGTGAAATG, the “relative binding free energy” value worked out at 0.14 kcal/mol.

As for TAGCTCACGTGGTGTT, the “relative binding free energy” value is 0.18 kcal/mol.

In the case of TTATACACGTGTCGTT, the “relative binding free energy” value worked out at 0.09 kcal/mol.

In the case of TAAGGCACGTGTGATT, the “relative binding free energy” value amounted to 0.07 kcal/mol.

On to AACTTCACGTGTTAGT, for which the “relative binding free energy” value was determined as 0.35 kcal/mol.

With CGCGGCACGTGTGTGG, the “relative binding free energy” value is -0.2 kcal/mol.

Values taken from the BET-seq Pho4 binding data (Le et al. 2018).
